This passage reports T/C results from PubChem BioAssay AID330 (DTP/NCI, 2004).

For this assay, the system named is P388 leukemia ip, CD2F1 mice, survival T/C. Briefly: NCI In Vivo Anticancer Drug Screen. Data for tumor model P388 Leukemia (intraperitoneal) in CD2F1 (CDF1) mice. Conditions: endpoint: median survival time, higher = longer survival.
Setting [1] is: dose: 12.5 mg/kg/injection, schedule: Q04DX002 (ip), vehicle: saline with Tween-80.
Setting [2] is: dose: 25.0 mg/kg/injection, schedule: Q04DX002 (ip), vehicle: saline with Tween-80.

Toxic doses and inconclusive results are not listed. A number of entries come with more than one value. They are shown here; other results are not. An entry can have further records. The values listed for one entry are repeated measurements (runs, samples, wells, individuals or studies). Marks in square brackets tell the records apart. The letters are not those of the source and start again with each entry.

In the case of `CN(C)N=Nc1ccc(S(=O)(=O)Nc2ncccn2)cc1`, the T/C runs as follows: (dose: 100.0 mg/kg/injection, schedule: Q04DX003 (ip), vehicle: saline with Tween-80) 95 % of control and 157 % of control; (dose: 200.0 mg/kg/injection, schedule: Q04DX003 (ip), vehicle: saline with Tween-80) 91 % of control and 169 % of control. Turning to `C=C1COC(O)(C2OCOC(C3CC(=O)NC(=O)C3)C2O)C1C` (stereo not drawn), the T/C runs as follows: (dose: 0.01 mg/kg/injection, schedule: Q01DX009 (ip), vehicle: water) 171 % of control [sample A] and 101 % of control [sample B]; (dose: 1.87 micrograms/kg/injection, schedule: Q01DX009 (ip), vehicle: water) 109 % of control [sample A] and 157 % of control [sample B]; (dose: 3.75 micrograms/kg/injection, schedule: Q01DX009 (ip), vehicle: water) 110 % of control [sample A] and 161 % of control [sample B]. Turning to `[O-]c1cc2c3c(c1)c1cc4c(cc1c[n+]3C=C2)OCO4`, the T/C (dose: 50.0 mg/kg/injection, schedule: Q01DX009 (ip), vehicle: other) is 88 % of control and 152 % of control. On to `CCCCOc1ccc(-c2c(COC(=O)NC)c(COC(=O)NC)c(C)n2C)cc1`, for which the T/C (dose: 60.0 mg/kg/injection, schedule: Q01DX009 (ip), vehicle: distilled water + Tween-80) was 90 % of control and 171 % of control. Turning to `CCn1c(C)c(COC(=O)NC)c(COC(=O)NC)c1-c1ccc(Cl)c(Cl)c1`, where the note is “dose: 25.0 mg/kg/injection, schedule: Q01DX009 (ip), vehicle: distilled water + Tween-80”, the T/C is 92 % of control and 172 % of control. Regarding `O=C1NC2C(=CC(O)C(O)C2O)c2cc3c(cc21)OCO3` (stereo not drawn), under “dose: 12.5 mg/kg/injection, schedule: Q01DX009 (ip), vehicle: saline + alcohol”, the T/C is 119 % of control and 161 % of control. Take `[Cl][Pt+2][Cl].[NH-]C(c1ccccc1)C([NH-])c1ccccc1` (stereo not drawn): the T/C reads like this: under setting [1], 120 % of control, 121 % of control, 122 % of control [sample A] and 161 % of control [sample B]; under setting [2], 121 % of control [sample A] and 164 % of control [sample B]. On to `CC(=O)OCN(C)N=Nc1ccc(C(C)=O)cc1`, for which the T/C (dose: 240.0 mg/kg/injection, schedule: Q01DX005 (ip), vehicle: Klucel (hydroxypropylcellulose) (HPC)) was 101 % of control, 167 % of control, 191 % of control.

For the molecule `CC([NH-])CC(C)[NH-].[Cl][Pt+2][Cl]` (stereo not drawn), the T/C by setting is: (dose: 3.12 mg/kg/injection, schedule: Q04DX002 (ip), vehicle: saline with Tween-80) 123 % of control [sample A] and 169 % of control [sample B]; (dose: 6.25 mg/kg/injection, schedule: Q04DX002 (ip), vehicle: saline with Tween-80) 170, 105, 168, 160 % of control [separate samples]; under setting [1], 196 % of control [sample A] and 163 % of control [sample B] and 88 % of control [sample C]. Take `Cc1ccc(C(=O)NC2C(=O)NC(C(C)C)C(=O)N3CCCC3C(=O)N(C)CC(=O)N(C)C(C(C)C)C(=O)OC2C)c2c1Oc1c(c(C(=O)NC3C(=O)NC(C(C)C)C(=O)N4CCCC4C(=O)N(C)CC(=O)N(C)C(C(C)C)C(=O)OC3C)c3nc(-c4ccccc4)c(=O)oc3c1C)N2` (stereo not drawn): the T/C (dose: 0.5 mg/kg/injection, schedule: Q01DX005 (ip), vehicle: water) was 90 % of control and 159 % of control.

Regarding `COc1cccc2c1C(=O)c1c(O)c3c(c(O)c1C2=O)C[C@@](O)(/C(CO)=N/NC(=O)c1ccccc1)C[C@@H]3OC1CC(N)C(O)C(C)O1` (stereo partly drawn), the T/C (dose: 16.0 mg/kg/injection, schedule: Q01DX009 (ip), vehicle: water) was 114 % of control and 375 % of control. For the molecule `CCCCOP(=O)(N1CC1(C)C)N1CC1(C)C` (stereo not drawn), the T/C reads like this: (dose: 16.0 mg/kg/injection, schedule: Q01DX009 (ip), vehicle: saline) 123 % of control and 182 % of control; (dose: 80.0 mg/kg/injection, schedule: Q01DX001 (ip), vehicle: saline) 121 % of control and 162 % of control. For `CO[C@H]1C[C@](C)(O)Cc2cc3c(c(O)c21)C(=O)c1c(O)cc2c(c1C3=O)O[C@@H]1O[C@@]2(C)[C@H](O)[C@@H](N(C)C)[C@@H]1O`, the T/C is, setting by setting: (dose: 100.0 mg/kg/injection, schedule: Q04DX003 (ip), vehicle: other) 100 % of control and 193 % of control; (dose: 200.0 mg/kg/injection, schedule: Q01DX001 (sc), vehicle: other) 103 % of control and 156 % of control. For `CC([NH-])CC(C)[NH-].[Br][Pt+2][Br]` (stereo not drawn), under setting [2], the T/C was 190 % of control [sample A] and 93 % of control [sample B] and 174 % of control [sample C]. As to `COc1cccc2c1C(=O)c1c(O)c3c(c(O)c1C2=O)C[C@@](O)(C(=O)CN1CCOCC1)C[C@@H]3OC1CC(N)C(O)C(C)O1` (stereo partly drawn), the T/C was 120 % of control and 168 % of control (dose: 6.25 mg/kg/injection, schedule: Q01DX009 (ip), vehicle: water); 117 % of control, 157 % of control, 179 % of control (dose: 12.5 mg/kg/injection, schedule: Q01DX009 (ip), vehicle: water). `O=C1CN(CN2CCOCC2)C(=O)CN1CN1CCOCC1`: the T/C (dose: 100.0 mg/kg/injection, schedule: Q01DX009 (ip), vehicle: saline) is 109 % of control and 155 % of control; the T/C (dose: 200.0 mg/kg/injection, schedule: Q01DX009 (ip), vehicle: saline) was 123 % of control and 150 % of control. Turning to `O=S(=O)(O)O.[NH-]C(c1ccccc1)C([NH-])c1ccccc1.[Pt+2]` (stereo not drawn), the T/C is 114 % of control and 160 % of control (dose: 3.12 mg/kg/injection, schedule: Q04DX002 (ip), vehicle: saline); 120 % of control and 169 % of control (dose: 50.0 mg/kg/injection, schedule: Q04DX002 (ip), vehicle: saline).
